Data reported in the supplement of paper PMC8728848.
This is one part of the list.

What was measured:
Assay in all cases: glycan array binding signal (z-score within array); higher = stronger binding
Settings in all cases: glycan notation: IUPAC condensed, linker removed
[1] = target: Neu5Ac(a2-3)Gal(b1-4)[Fuc(a1-3)]GlcNAc(b1-3)Gal(b1-4)[Fuc(a1-3)]GlcNAc(b1-3)Gal(b1-4)[Fuc(a1-3)]GlcNAc
Method in brief: (§1)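 The binding signal is a Z-score computed within each array. Data were drawn from 3228 arrays in the Consortium for Functional Glycomics database, restricted to those with a known protein sequence. Scores were averaged over arrays of the same protein sequence at different concentrations or buffers, and over linkers, and negative values can be taken as non-binding.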

[2] = target: Neu5Ac(a2-3)Gal(b1-4)[Fuc(a1-3)]GlcNAc(b1-3)GalNAc
Method in brief: as §1

[3] = target: Neu5Ac(a2-3)Gal(b1-4)[Fuc(a1-3)]GlcNAc(b1-6)[Gal(b1-3)]GalNAc
Method in brief: as §1

[4] = target: Neu5Ac(a2-3)Gal(b1-4)[Fuc(a1-3)]GlcNAc(b1-6)[Neu5Ac(a2-3)Gal(b1-3)]GalNAc
Method in brief: as §1

[5] = target: Neu5Ac(a2-3)Gal(b1-4)[Fuc(a1-3)]GlcNAc6S
Method in brief: as §1

[6] = target: Neu5Ac(a2-3)Gal6S(b1-4)GlcNAc
Method in brief: as §1

[7] = target: Neu5Ac(a2-3)Gal6S(b1-4)[Fuc(a1-3)]GlcNAc
Method in brief: as §1

Neu5Ac(a2-3)GalNAc = target: Neu5Ac(a2-3)GalNAc
Method in brief: as §1

[8] = target: Neu5Ac(a2-3)GalNAc(b1-4)GlcNAc
Method in brief: as §1

[9] = target: Neu5Ac(a2-3)[GalNAc(b1-4)]Gal(b1-4)Glc
Method in brief: as §1

[10] = target: Neu5Ac(a2-3)[GalNAc(b1-4)]Gal(b1-4)GlcNAc
Method in brief: as §1

[11] = target: Neu5Ac(a2-3)[GalNAc(b1-4)]Gal(b1-4)GlcNAc(b1-3)GalNAc
Method in brief: as §1

[12] = target: Neu5Ac(a2-3)[Neu5Ac(a2-6)]GalNAc
Method in brief: as §1

Neu5Ac(a2-6)Gal = target: Neu5Ac(a2-6)Gal
Method in brief: as §1

[13] = target: Neu5Ac(a2-6)Gal(b1-3)GlcNAc(b1-3)[Gal(b1-4)GlcNAc(b1-6)]Gal(b1-4)Glc
Method in brief: as §1

Neu5Ac(a2-6)Gal(b1-4)Glc = target: Neu5Ac(a2-6)Gal(b1-4)Glc
Method in brief: as §1

[14] = target: Neu5Ac(a2-6)Gal(b1-4)GlcNAc
Method in brief: as §1

[15] = target: Neu5Ac(a2-6)Gal(b1-4)GlcNAc(b1-2)Man
Method in brief: as §1

[16] = target: Neu5Ac(a2-6)Gal(b1-4)GlcNAc(b1-2)Man(a1-3)Man(b1-4)GlcNAc(b1-4)GlcNAc
Method in brief: as §1

[17] = target: Neu5Ac(a2-6)Gal(b1-4)GlcNAc(b1-2)Man(a1-3)[Gal(b1-4)GlcNAc(b1-2)Man(a1-6)]Man(b1-4)GlcNAc(b1-4)GlcNAc
Method in brief: as §1

[18] = target: Neu5Ac(a2-6)Gal(b1-4)GlcNAc(b1-2)Man(a1-3)[GlcNAc(b1-2)Man(a1-6)]Man(b1-4)GlcNAc(b1-4)GlcNAc
Method in brief: as §1

[19] = target: Neu5Ac(a2-6)Gal(b1-4)GlcNAc(b1-2)Man(a1-3)[GlcNAc(b1-2)Man(b1-4)GlcNAc(b1-2)Man(a1-6)]Man(b1-4)GlcNAc(b1-4)GlcNAc
Method in brief: as §1

[20] = target: Neu5Ac(a2-6)Gal(b1-4)GlcNAc(b1-2)Man(a1-3)[GlcNAc(b1-4)][Neu5Ac(a2-6)Gal(b1-4)GlcNAc(b1-2)Man(a1-6)]Man(b1-4)GlcNAc(b1-4)GlcNAc
Method in brief: as §1

[21] = target: Neu5Ac(a2-6)Gal(b1-4)GlcNAc(b1-2)Man(a1-3)[Man(a1-6)]Man(b1-4)GlcNAc(b1-4)GlcNAc
Method in brief: as §1

[22] = target: Neu5Ac(a2-6)Gal(b1-4)GlcNAc(b1-2)Man(a1-3)[Neu5Ac(a2-3)Gal(b1-4)GlcNAc(b1-2)Man(a1-6)]Man(b1-4)GlcNAc(b1-4)GlcNAc
Method in brief: as §1

[23] = target: Neu5Ac(a2-6)Gal(b1-4)GlcNAc(b1-2)Man(a1-3)[Neu5Ac(a2-6)Gal(b1-4)GlcNAc(b1-2)Man(a1-6)]Man(b1-4)GlcNAc(b1-4)GlcNAc
Method in brief: as §1

[24] = target: Neu5Ac(a2-6)Gal(b1-4)GlcNAc(b1-2)Man(a1-3)[Neu5Ac(a2-6)Gal(b1-4)GlcNAc(b1-2)Man(a1-6)]Man(b1-4)GlcNAc(b1-4)[Fuc(a1-6)]GlcNAc
Method in brief: as §1

[25] = target: Neu5Ac(a2-6)Gal(b1-4)GlcNAc(b1-2)Man(a1-6)Man(b1-4)GlcNAc(b1-4)GlcNAc
Method in brief: as §1

[26] = target: Neu5Ac(a2-6)Gal(b1-4)GlcNAc(b1-2)Man(a1-6)[Gal(b1-4)GlcNAc(b1-2)Man(a1-3)]Man(b1-4)GlcNAc(b1-4)GlcNAc
Method in brief: as §1

[27] = target: Neu5Ac(a2-6)Gal(b1-4)GlcNAc(b1-2)Man(a1-6)[GlcNAc(b1-2)Man(a1-3)]Man(b1-4)GlcNAc(b1-4)GlcNAc
Method in brief: as §1

[28] = target: Neu5Ac(a2-6)Gal(b1-4)GlcNAc(b1-2)Man(a1-6)[Man(a1-3)]Man(b1-4)GlcNAc(b1-4)GlcNAc
Method in brief: as §1

[29] = target: Neu5Ac(a2-6)Gal(b1-4)GlcNAc(b1-2)[Neu5Ac(a2-6)Gal(b1-4)GlcNAc(b1-4)]Man(a1-3)[GlcNAc(b1-4)][Neu5Ac(a2-6)Gal(b1-4)GlcNAc(b1-2)[Neu5Ac(a2-6)Gal(b1-4)GlcNAc(b1-6)]Man(a1-6)]Man(b1-4)GlcNAc(b1-4)GlcNAc
Method in brief: as §1

[30] = target: Neu5Ac(a2-6)Gal(b1-4)GlcNAc(b1-2)[Neu5Ac(a2-6)Gal(b1-4)GlcNAc(b1-4)]Man(a1-3)[GlcNAc(b1-4)][Neu5Ac(a2-6)Gal(b1-4)GlcNAc(b1-4)Man(a1-6)]Man(b1-4)GlcNAc(b1-4)GlcNAc
Method in brief: as §1

[31] = target: Neu5Ac(a2-6)Gal(b1-4)GlcNAc(b1-2)[Neu5Ac(a2-6)Gal(b1-4)GlcNAc(b1-6)]Man(a1-6)[Neu5Ac(a2-6)Gal(b1-4)GlcNAc(b1-2)Man(a1-3)][GlcNAc(b1-4)]Man(b1-4)GlcNAc(b1-4)GlcNAc
Method in brief: as §1

[32] = target: Neu5Ac(a2-6)Gal(b1-4)GlcNAc(b1-3)Gal(b1-3)GlcNAc
Method in brief: as §1

[33] = target: Neu5Ac(a2-6)Gal(b1-4)GlcNAc(b1-3)Gal(b1-4)GlcNAc
Method in brief: as §1

[34] = target: Neu5Ac(a2-6)Gal(b1-4)GlcNAc(b1-3)Gal(b1-4)GlcNAc(b1-2)Man(a1-3)[Neu5Ac(a2-6)Gal(b1-4)GlcNAc(b1-3)Gal(b1-4)GlcNAc(b1-2)Man(a1-6)]GalNAc
Method in brief: as §1

[35] = target: Neu5Ac(a2-6)Gal(b1-4)GlcNAc(b1-3)Gal(b1-4)GlcNAc(b1-3)Gal(b1-4)GlcNAc
Method in brief: as §1

[36] = target: Neu5Ac(a2-6)Gal(b1-4)GlcNAc(b1-3)Gal(b1-4)GlcNAc(b1-3)Gal(b1-4)GlcNAc(b1-2)Man(a1-3)[Neu5Ac(a2-6)Gal(b1-4)GlcNAc(b1-3)Gal(b1-4)GlcNAc(b1-3)Gal(b1-4)GlcNAc(b1-2)Man(a1-6)]GalNAc
Method in brief: as §1

[37] = target: Neu5Ac(a2-6)Gal(b1-4)GlcNAc(b1-3)Gal(b1-4)GlcNAc(b1-3)GalNAc
Method in brief: as §1

[38] = target: Neu5Ac(a2-6)Gal(b1-4)GlcNAc(b1-3)Gal(b1-4)GlcNAc(b1-3)[Neu5Ac(a2-6)Gal(b1-4)GlcNAc(b1-3)Gal(b1-4)GlcNAc(b1-6)]GalNAc
Method in brief: as §1

[39] = target: Neu5Ac(a2-6)Gal(b1-4)GlcNAc(b1-3)Gal(b1-4)GlcNAc(b1-6)[Gal(b1-3)]GalNAc
Method in brief: as §1

B1: MGL6A (Homo sapiens) (protein)
chain: MTRTYENFQYLENKVKVQGFKNGPLPLQSLLQRLCSGPCHLLLSLGLGLLLLVIICVVGFQNSKFQRDLVTLRTDFSNFTSNTVAEIQALTSQGSSLEETIASLKAEVEGFKQERQAVHSEMLLRVQQLVQDLKKLTCQVATLNNNGEEASTEGTCCPVNWVEHQDSCYWFSHSGMSWAEAEKYCQLKNAHLVVINSREEQNFVQKYLGSAYTWMGLSDPEGAWKWVDGTDYATGFQNWKPGQPDDWQGHGLGGGEDCAHFHPDGRWNDDVCQRPYHWVCEAGLGQTSQESH
- glycan array binding signal (z-score) [1]: -0.327
- glycan array binding signal (z-score) [2]: -0.175
- glycan array binding signal (z-score) [3]: -0.237
- glycan array binding signal (z-score) [4]: -0.153
- glycan array binding signal (z-score) [5]: -0.285
- glycan array binding signal (z-score) [6]: -0.278
- glycan array binding signal (z-score) [7]: -0.235
- glycan array binding signal (z-score) (Neu5Ac(a2-3)GalNAc): -0.114
- glycan array binding signal (z-score) [8]: -0.321
- glycan array binding signal (z-score) [9]: 1.54
- glycan array binding signal (z-score) [10]: 0.725
- glycan array binding signal (z-score) [11]: -0.066
- glycan array binding signal (z-score) [12]: -0.183
- glycan array binding signal (z-score) (Neu5Ac(a2-6)Gal): -0.197
- glycan array binding signal (z-score) [13]: -0.259
- glycan array binding signal (z-score) (Neu5Ac(a2-6)Gal(b1-4)Glc): -0.298
- glycan array binding signal (z-score) [14]: -0.252
- glycan array binding signal (z-score) [15]: -0.302
- glycan array binding signal (z-score) [16]: -0.108
- glycan array binding signal (z-score) [17]: -0.16
- glycan array binding signal (z-score) [18]: -0.22
- glycan array binding signal (z-score) [19]: -0.218
- glycan array binding signal (z-score) [20]: -0.257
- glycan array binding signal (z-score) [21]: -0.276
- glycan array binding signal (z-score) [22]: -0.259
- glycan array binding signal (z-score) [23]: -0.271
- glycan array binding signal (z-score) [24]: -0.247
- glycan array binding signal (z-score) [25]: -0.268
- glycan array binding signal (z-score) [26]: -0.254
- glycan array binding signal (z-score) [27]: -0.175
- glycan array binding signal (z-score) [28]: -0.19
- glycan array binding signal (z-score) [29]: -0.775
- glycan array binding signal (z-score) [30]: -0.845
- glycan array binding signal (z-score) [31]: -0.241
- glycan array binding signal (z-score) [32]: -0.196
- glycan array binding signal (z-score) [33]: -0.225
- glycan array binding signal (z-score) [34]: -0.183
- glycan array binding signal (z-score) [35]: -0.175
- glycan array binding signal (z-score) [36]: -0.152
- glycan array binding signal (z-score) [37]: -0.891
- glycan array binding signal (z-score) [38]: -0.22
- glycan array binding signal (z-score) [39]: -0.252
